Measured values reported in the antibiotic and cytotoxicity screens of Wong et al. (2023).
The list shows a part of the results.

How the values were obtained:
HSkMC = human skeletal muscle cells; assay: cytotoxicity call (relative viability < 0.9); settings: 10 µM
HepG2 = assay: cytotoxicity call (relative viability < 0.9); settings: 10 µM
S. aureus RN4220 = assay: growth inhibition call (relative growth <= 0.2); settings: 50 µM

Row | SMILES | cytotoxicity call (HSkMC) | cytotoxicity call (HepG2) | growth inhibition call (S. aureus RN4220)
1 | COc1ccc(CN(C)C[C@H]2OCCCC[C@@H](C)Oc3ccc(NS(=O)(=O)c4ccc(F)cc4)cc3C(=O)N([C@H](C)CO)C[C@H]2C)cc1 | inactive | inactive | inactive
2 | C[C@@H]1CN([C@@H](C)CO)C(=O)c2cc(C#CC3(O)CCCC3)cnc2O[C@@H]1CN(C)S(=O)(=O)c1ccccc1 | inactive | inactive | inactive
3 | C[C@H](c1cccnc1)N(C(=O)Nc1ccccc1)C1CCCCC1 | inactive | active | inactive
4 | O=C(O)Cn1c(=O)n(CC(=O)O)c2ccccc21 | inactive | inactive | inactive
5 | CC(C)NC(=O)N(C)C[C@H]1Oc2ccc(NC(=O)Cn3cnnn3)cc2CC(=O)N([C@@H](C)CO)C[C@H]1C | inactive | inactive | inactive
6 | CO[C@H]1CN(C)C(=O)c2cc(NC(=O)c3ccccc3)ccc2OC[C@H](C)N(C(=O)CN(C)C)C[C@H]1C | inactive | inactive | inactive
7 | COc1ccc(S(=O)(=O)N(C)C[C@H]2OCCCC[C@@H](C)Oc3ccc(NC(=O)Nc4c(C)noc4C)cc3C(=O)N([C@@H](C)CO)C[C@H]2C)cc1 | inactive | inactive | inactive
8 | C[C@@H]1CN([C@@H](C)CO)C(=O)c2cc(C#CC3(O)CCCC3)cnc2O[C@@H]1CN(C)C(=O)Nc1ccc2c(c1)OCO2 | inactive | inactive | inactive
9 | CC(C)[C@@H](C(=O)O)n1cnnn1 | inactive | inactive | inactive
10 | Cc1ccc(S(=O)(=O)N2C[C@@H](O)COC[C@@H]3O[C@@H](CC(=O)NCCN4CCCCC4)CC[C@H]32)cc1 | inactive | inactive | inactive
11 | CCOC(=O)CCCCCC(=O)Nc1ccc2c(c1)C(=O)N([C@H](C)CO)C[C@@H](C)[C@@H](CN(C)C(=O)CCC(F)(F)F)OCCCC[C@H](C)O2 | inactive | inactive | inactive
12 | C[C@H](CO)N1C[C@H](C)[C@@H](CN(C)C(=O)Cc2ccncc2)Oc2cc(C#Cc3ccccc3F)ccc2S1(=O)=O | inactive | inactive | inactive
